Data reported in the supplement of paper PMC11417369.
This is one part of the list.

test system: PfSIP2 AP2 domain 1 (GST-tagged); assay: gcPBM binding intensity (ln(normalized median fluorescence intensity)); higher = stronger DNA binding
Method in brief: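 The highest Masliner-normalised natural-log median intensity across replicate spots of either probe orientation is reported as binding intensity. GST-tagged P. falciparum DNA-binding domains expressed in E. coli were applied for 1 h to an Agilent 4 × 180k array of primer-extended double-stranded 36-bp intergenic genomic probes plus negative controls, and bound protein was detected with Alexa488 anti-GST antibody and scanned at 488 nm.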

| Sequence | gcPBM binding intensity (ln) |
| --- | --- |
| TTGTTAATATATATATGTACTTATTTATTTATTTAT [XGTACX_site2274] | 7.01 |
| TTTGAATTTTTTAACACACACATGTCTGGATATATA [CACACA_site1645] | 6.92 |
| GAAAAAAAAAAAAAAAGTACATGTCATAAATTGTAT [XGTACX_site1461] | 6.82 |
| TTTTCCTTAACACACGTTTATATAAAAAATTAAAAT [XGTACX_negctrl_site115] | 7.34 |
| AATGAAAAATGTATCGTTAAAGGGTATCTTAAGGAT [XGTACX_negctrl_site222] | 6.84 |
| CCAAAGAAATATAATACACACAAGAATATATTGGAT [CACACA_site6018] | 6.96 |
| AAGTATTACAACCACACACACACCTATATATTATAT [CACACA_site4158] | 7.14 |
| ACTTGTTTTCAATGTAAAATACAATTTTCATTTATT [CACACA_negctrl_site435] | 7.08 |
| AAAAAAAAAAGACACACACACAAATACAAATACATA [CACACA_site6334] | 6.9 |
| TTTTAAACAAAAAATTGTACAATTAGTGTATAATCC [XGTACX_site778] | 7.27 |
| AAAGGAAATTAAAATTGATTACATATATAAAAAAAC [XGTACX_negctrl_site196] | 7.11 |
| AATTTAATATAATGCACACATAAAAAAAAAAAAAAA [CACACA_site123] | 7.42 |
| CTTTATTATAAGATTACACACATGTGTTATAATTTA [CACACA_site3169] | 6.83 |
| TTGACCTTAAGAAGGTTGCACTAATCATTCAAAGTT | 7.99 |
| CCATTTATTATTTGGGGTACATTTAATTAATATTTT [XGTACX_site5940] | 7.43 |
| ATTTAAGGGGTGTATGCACACGACTATTCCGTATGA [CACACA_site4738] | 6.99 |
| AATATTTTAAGGCACACACACAAAAAAAAAAAAAAA [CACACA_site2890] | 7.22 |
| TAATTTAGTATCTTTACATGCGGGCATTATGTCATA [TGCATGCA_site167] | 6.74 |
| ATAGGCACTTTTTGCACACGTATGAATAACAAAATA [CACACA_site5069] | 7.57 |
| TGAAAATTTTAATGAGGAAATAAAATAAATATAATA [GTGCAC_negctrl_site159] | 7 |
| TTTATTAATAGACACACACACACACGCAAAATAAAA [CACACA_site6255] | 7.19 |
| CCAAAGGGGGTATACTGTACATATAGTGGTTATATA [XGTACX_site1515] | 7.48 |
| TGTAAAACTGAAAAGGGTACATATAAATATATATAT [XGTACX_site69] | 8.27 |

| Sequence | gcPBM binding intensity (ln) |
| --- | --- |
| ATTTATTTTTATATAACACACAAAGTATAATATAAC [CACACA_site3582] | 6.94 |
| ATATATATATCGATCTGTACATATATTTATAGACAT [XGTACX_site4236] | 9.03 |
| ATATATTTATATTTATGTACATATCTTTATTTACGT [XGTACX_site6800] | 7.14 |
| ATTAGTAAGAATCATTGTACATTATAATATGTGGTA [XGTACX_site1341] | 7.22 |
| TTTTTAAAAAAGTAAAGTACAAAAAAAAGGAATATC [XGTACX_site588] | 7.38 |
| TGCTTCCTTAGGAATGTACACACATATATAATATGT [CACACA_site8048] | 7.06 |
| AAAGAAATACAATGATGTACATTTAAAAAAAATTAA [XGTACX_site4324] | 6.79 |
| ACAAGAAAATATATTTGTACATATATAATTTTATTT [XGTACX_site548] | 6.84 |
| ATTCTTTTTTTTTGGAAATGTATTTTTATGTTTTGT [TGCATGCA_negctrl_site426] | 6.73 |
| ATTTTAGATGAAAAAGCACACAACATATATATATAT [CACACA_site2295] | 9.51 |
| ACGTTGAAGAAATACACATGCATATTCTATATATAT [TGCATGCA_site76] | 7.55 |
| TATATTTTTTAAAAAGCATGCAAAAAATAATGATCA [TGCATGCA_site48] | 6.97 |
| GTATAATATGAACACACACACACACGCAAAAAAAAA [CACACA_site7036] | 7.28 |
| TAATATATATAAACATGTACAAATCAAAAACAAAAG [XGTACX_site4076] | 7.5 |
| TCATTTTATTTTTTCACACACACATATATATATATA [CACACA_site3333] | 9.1 |
| CTCTTATGCTAGGAAGTGCAATAGTATGGGTACCAC | 7.79 |
| TTGCCCATTTCATTAACACACAAATGTTTATATTCT [CACACA_site4569] | 7.22 |
| TTAACTCAAGAGTGTACACATATATATATATATATA [CACACA_site4334] | 9.31 |
| AATACCCATTTTAGTACACACTTAAAAAATTATTTT [CACACA_site5611] | 6.97 |
| ATATAGTATTAATTTGCATGTCATGTATTAGGTCGA [TGCATGCA_site540] | 6.73 |
| TATTCATTTATAAGCTGTACACATTAATTTGAGCTA [XGTACX_site3616] | 6.83 |
| ATTAGGATATATTAAAGTACTAATATAATACATTTT [XGTACX_site7386] | 6.69 |
| CTTTTTTTAATATGCACACATATATTTTATATATTA [CACACA_site2077] | 7.7 |

| Sequence | gcPBM binding intensity (ln) |
| --- | --- |
| TGTAAGTTGATATAATGTACATGTTTGATTTTTTTT [XGTACX_site7687] | 6.97 |
| TTTTATATTTTTTGTGGTACATTTAGAGAACCAAAA [XGTACX_site1695] | 7.04 |
| AAAAAGGGTATTATTACACACACGTAAATATTAATA [CACACA_site101] | 6.91 |
| AGATTTATACAAATATGTACACACTAAATATATATT [XGTACX_site864] | 7.21 |
| TAACTAAGGAATAATACACACAGAAATATAGATTTA [CACACA_site6293] | 6.71 |
| TCTATTTTCTTATGAATGCACTAATTTATAAAACGT | 8.41 |
| CAACAAAAATTATTTACACACAAAAGGCAAGGAAAT [CACACA_site1971] | 7.03 |
| TTTATAAACAAATGAACACACAAACATATATATATA [CACACA_site5713] | 8.76 |
| TTTATTTTATCATTTGCACACGCACCCAGACATAAA [CACACA_site4347] | 10.8 |
| CTATTATAATATTTTACACACCATGTAAGATATATA [CACACA_site7492] | 6.9 |
| TTTTTTCATTAGAAAACATGCAAATGTTTTTCACTT [TGCATGCA_site127] | 6.53 |
| AAAGAAATAAGGTGCACACATATACAGATATATATA [CACACA_site4399] | 11.9 |
| ATATATTTGATTTACACACTTACAATGTATATAAAT [CACACA_site2993] | 7.06 |
| CTCTTTTTTTGCAAAAGTACAAATGGGGATATATTT [XGTACX_site5813] | 7.49 |
| TTAAATAAAAAAATAACACACATATAAATATATATG [CACACA_site3175] | 6.79 |
| TTACATATTTTTTAACGTACATAAATATATATGTAT [XGTACX_site8406] | 7.34 |
| TTGTAAAAATTAATACATATATATATATATATATAT [CACACA_negctrl_site6] | 9.55 |
| ACTCAAACCTTTAGAGTGCAAAAAAAAAAAAAAAAA [GTGCAC_site9952] | 9.22 |
| ATAATTATCATAGGATGTACATATTTATTTTGTATA [XGTACX_site7797] | 7.06 |
| ATATGTTAAATTATTCGTACGTAAAAAAAAATGGAT [XGTACX_site3465] | 7.22 |
| GCATTATTTACCACAACACACAAATATTTACCAATC [CACACA_site2669] | 7.56 |
| TAATTTCATCATATTTGTTCCTTCTCAAAATTTTTT [CACACA_negctrl_site217] | 7.01 |
| ACTATATATTTAATATGTACACATATTTCTGTCGAT [XGTACX_site6878] | 7.28 |

| Sequence | gcPBM binding intensity (ln) |
| --- | --- |
| TTCCTAAGAATAATCAGTACACATAAAAAGAACATA [XGTACX_site7861] | 7.17 |
| ATATATATATATATATGTACATATTTTTAATTATAA [XGTACX_site7444] | 9.31 |
| TTGTTTCTTAAATTATTTATTTTATATTAAAAAAAA [XGTACX_negctrl_site224] | 7.14 |
| AAGAAAATGAAAAAGTAAAAACATATATTAAATATA [TGCATGCA_negctrl_site123] | 6.69 |
| ATTCGTAGTTTTATGAATTAATATAATAAAAATTAA [XGTACX_negctrl_site181] | 6.71 |
| TCGTAGTTACTATGGCAAGAAAATAAACGGTCTTGT [GTGCAC_negctrl_site684] | 6.8 |
| ATAGAATAATATTGTAGTACTAAAAATATTCATTTT [XGTACX_site6447] | 6.93 |
| TCTATATATAAATATAAATATATATATATAATGTTA [TGCATGCA_negctrl_site92] | 6.82 |
| TAAAAAACAAAACAGGTGCTATATAATTTTCATTTT | 7.5 |
| ATTATAAATTAAAATACACACATATATACATAATAT [CACACA_site7337] | 6.97 |
| TCTTTTTGTTCGTGTACACACATGAAATTTATAAAA [CACACA_site1619] | 7.51 |
| AAGTATATACATATATGTACACATTGTCAGATAGAA [XGTACX_site1236] | 7.12 |
| CATGTAATATTAAACACACACTCATATAACACAATA [CACACA_site65] | 6.95 |
| AAAGAAAAAAAAAACACACACACACGCATTCAATAT [CACACA_site6169] | 6.87 |
| ATATATATTTATATATATATATATATATATATGTAT [GTGCAC_negctrl_site220] | 8.18 |
| TAGTTATTTATATACACACACATACAGACAAATAAA [CACACA_site7577] | 7.28 |
| TCTTAGATTATTTATTGTACTTATGCTTAAAAAATT [XGTACX_site3639] | 7.23 |
| GTCCAATAAGGAAGAGTGCAAAAATTAAATAATATA [GTGCAC_site9751] | 8.91 |
| ATATTTTCTTTTTAAAGTACATATTTGATTACAATA [XGTACX_site8414] | 6.77 |
| GAAAAAAAAGAAAAAACACACATATGATATATTTAT [CACACA_site1524] | 6.62 |
